These results are taken from PubChem BioAssay AID504332 (National Center for Advancing Translational Sciences (NCATS), 2011).

Screen size: about 350,000 compounds; about 31,000 (8.9%) were called active. Roughly 15% stayed inconclusive and do not appear here. Calls come from the whole dose curve; as a rule, active = well fitted inhibition curve with a large enough effect; inconclusive = small, poorly fitted or top-dose-only effect; inactive = no such curve, though single readings can be large or run the other way. Where a structure was tested more than once in an assay, its records may differ in their call. A number of entries come with more than one value. They are shown here; other results are not. An entry can have further records. Values that stand side by side repeat one measurement across runs, samples, wells, individuals or studies.
Potency is the fitted concentration of half-maximal effect.

In this assay the target is Histone-lysine N-methyltransferase EHMT2 (Homo sapiens) (UniProt Q96KQ7). Description: qHTS Assay for Inhibitors of Histone Lysine Methyltransferase G9a. Note: nearly all actives have a fitted effect of over 75% in size. Conditions: G9a H3K9 monomethylation, AlphaScreen, 2 h; series mostly up to 12.7 µM. For orientation: Quantitative high-throughput screening tests each substance at several concentrations.
Sequence of UniProt Q96KQ7 (Q96KQ7 whole entry, looked up): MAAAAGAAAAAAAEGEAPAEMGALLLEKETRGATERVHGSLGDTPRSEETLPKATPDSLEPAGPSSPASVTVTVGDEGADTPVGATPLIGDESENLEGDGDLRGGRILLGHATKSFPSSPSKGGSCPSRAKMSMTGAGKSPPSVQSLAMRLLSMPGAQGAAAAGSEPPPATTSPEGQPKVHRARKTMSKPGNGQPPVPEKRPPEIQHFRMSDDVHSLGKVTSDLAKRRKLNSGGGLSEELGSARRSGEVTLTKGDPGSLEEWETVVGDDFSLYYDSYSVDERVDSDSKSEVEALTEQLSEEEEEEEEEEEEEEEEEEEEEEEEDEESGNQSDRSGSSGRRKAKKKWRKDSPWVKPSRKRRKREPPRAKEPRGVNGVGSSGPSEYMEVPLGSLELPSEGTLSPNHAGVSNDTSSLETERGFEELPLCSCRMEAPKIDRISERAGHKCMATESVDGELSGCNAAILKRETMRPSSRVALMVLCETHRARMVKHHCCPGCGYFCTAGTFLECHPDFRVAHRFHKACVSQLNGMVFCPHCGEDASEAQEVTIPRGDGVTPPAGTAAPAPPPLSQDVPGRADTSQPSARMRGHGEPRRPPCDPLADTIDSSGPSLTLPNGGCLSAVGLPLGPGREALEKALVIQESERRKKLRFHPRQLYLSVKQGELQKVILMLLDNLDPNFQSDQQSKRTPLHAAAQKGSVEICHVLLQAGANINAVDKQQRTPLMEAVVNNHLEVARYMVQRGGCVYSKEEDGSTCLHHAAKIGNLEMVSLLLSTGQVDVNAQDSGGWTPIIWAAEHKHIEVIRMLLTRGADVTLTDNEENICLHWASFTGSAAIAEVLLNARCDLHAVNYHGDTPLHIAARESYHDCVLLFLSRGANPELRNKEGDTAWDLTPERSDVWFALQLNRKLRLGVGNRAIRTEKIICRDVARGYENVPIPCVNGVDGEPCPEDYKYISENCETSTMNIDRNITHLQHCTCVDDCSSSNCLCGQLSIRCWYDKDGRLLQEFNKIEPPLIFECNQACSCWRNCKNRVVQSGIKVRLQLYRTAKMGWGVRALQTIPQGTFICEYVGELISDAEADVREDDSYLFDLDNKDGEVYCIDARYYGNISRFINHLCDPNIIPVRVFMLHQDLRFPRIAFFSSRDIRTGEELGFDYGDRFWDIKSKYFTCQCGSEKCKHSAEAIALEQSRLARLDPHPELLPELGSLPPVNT
Turning to `CC[C@@H]1Cc2cc(O)ccc2C2=C1c1ccc(O)cc1C[C@H]2CC`, the Potency entry is “active: 20 µM, 14.1 µM, 23.8 µM and inactive [separate samples]”.
